According to PubChem BioAssay AID485344 (National Center for Advancing Translational Sciences (NCATS), 2010):
“And” between values parts separate entries of the source, which are not always exact repeats. Equal entries are not always repeated. Out of some 340,000 compounds screened, about 6,900 (2%) were called active. Cut-off read from the data, not from the text of the source: active = inhibition above about 30%; inactive = below that, where a call was filed. This is a selection; strong and weak results do not stand in their true shares. Where no call is shown, the source filed none.

Biological target: D(2) dopamine receptor (Homo sapiens) (UniProt P14416)
Sequence of UniProt P14416 (P14416 whole entry, looked up): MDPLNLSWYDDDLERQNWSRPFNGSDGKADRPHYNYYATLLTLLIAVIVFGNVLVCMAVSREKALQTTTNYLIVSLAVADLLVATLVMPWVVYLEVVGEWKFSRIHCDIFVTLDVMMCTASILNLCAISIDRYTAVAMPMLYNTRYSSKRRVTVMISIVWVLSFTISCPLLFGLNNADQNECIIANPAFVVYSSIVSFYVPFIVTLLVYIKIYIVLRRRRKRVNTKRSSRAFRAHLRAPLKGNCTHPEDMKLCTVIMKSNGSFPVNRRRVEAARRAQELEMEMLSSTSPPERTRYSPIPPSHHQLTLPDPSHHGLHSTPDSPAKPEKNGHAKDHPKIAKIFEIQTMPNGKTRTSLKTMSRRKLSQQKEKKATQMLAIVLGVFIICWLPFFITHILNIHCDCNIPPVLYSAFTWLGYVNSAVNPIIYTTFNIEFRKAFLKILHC
Test: HTS Assay for Allosteric Antagonists of the Human D2 Dopamine Receptor: Primary Screen for Antagonists; note: 0% is about no effect
Conditions: HEK293 TREx D2 cells, calcium flux, dopamine EC80; at 10 µM; stronger effect = higher value
Outline: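 Dopamine at EC80 is the agonist stimulus; test compounds precede it by 180 s. Calcium flux read kinetically in a force-coupled, inducible HEK293 T-REx D2 cell line.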

Row | SMILES | inhibition
1 | CCN(CC)S(=O)(=O)c1ccc2c(c1)N(CC(=O)Nc1c(C)cccc1C)C(=O)CO2 | -22.2%
2 | CCc1ccccc1NC(=O)Cn1nnc(C(=O)OC)c1C(=O)OC | -24.8%
3 | O=C1c2ccccc2C(=O)N1CC1c2ccccc2CCN1S(=O)(=O)c1cnc[nH]1 (stereo unspecified) | active: 46.4%
4 | CCc1ccc(NCc2cc3cc4c(cc3n(CC(=O)Nc3ccc(Cl)cc3)c2=O)OCO4)cc1 | -7.56%
5 | COc1ccc(NC(=O)CSc2ncc(-c3ccc(Cl)cc3)[nH]2)cc1OC | 2.4%
6 | COC(=O)c1ccc(NC(=O)CC2C(=O)N(c3ccc(Cl)cc3)C(=O)N2Cc2cccs2)cc1 (stereo unspecified) | 12.7%
7 | Cc1cc(C)cc(OCC(=O)NCC(c2ccc(Cl)cc2)N2CCCCC2)c1 (stereo unspecified) | 10.4%
8 | O=C(NCc1ccccc1)c1cc(-c2cccc(Cl)c2)on1 | 5.08%
9 | CC1CCc2c(sc3nnn(Cc4ccc(F)cc4)c(=O)c23)C1 (stereo unspecified) | 10%
10 | Cn1c(=O)c2c(n3c4ccccc4nc13)NC(=O)CC2c1ccccc1F (stereo unspecified) | 7.73%
11 | CCc1nnc2c(Nc3ccc(Br)c(C)c3)nc3ccccc3n12 | -2.27%
12 | COc1ccc(S(=O)(=O)N2CCN(c3ccc(F)cc3)CC2)cc1-c1noc(C)n1 | 13.9%
13 | Cc1ccc(Cn2c(=O)n(CCCCC(=O)NCCc3ccc(Cl)cc3)c(=O)c3ccccc32)cc1 | -2.77%
14 | O=C(CNC(=O)c1ccccc1Cl)OCc1cc(=O)n2ccsc2n1 | -3.29%
15 | Cc1cccc(NC(=O)c2cc(S(=O)(=O)N3CCCCC3)c[nH]2)c1C | 18.9%
16 | Brc1csc(CN2CCc3nc(Nc4ccccc4)ncc3C2)c1 | -5.64%
17 | Cc1cccc(Cn2c(SCc3ccc(C(=O)N4CCCCCC4)cc3)nc3ccncc32)c1 | 17.1%
18 | COc1cc(CN(C(=O)c2cc3ccccc3oc2=O)C2CCS(=O)(=O)C2)cc(OC)c1OC (stereo unspecified) | -22.5%
19 | CCOC(=O)c1c(Oc2ccc(C(=O)OC)cc2)nnc(-c2ccccc2)c1-c1ccccc1 | 9.58%
20 | Cc1ccc(C)c(N(C)C(=O)c2cn(C)c(=O)c3ccccc23)c1 | -23%
21 | CCN(C(=O)Cn1c(C(=O)OC)cc2oc3ccccc3c21)c1cccc(C)c1 | 0.0733%
22 | COc1cc(NC(=O)Cn2c(SCc3ccc(F)cc3)nc3cccnc32)cc(OC)c1 | -2.25%
23 | Cc1ccc(CCNC(=O)CCc2cn(Cc3ccccc3C)c3ccccc23)cc1 | -2.63%
24 | CCc1ccc(-n2nnc(-c3nc(-c4ccccc4)no3)c2C)cc1 | 3.68%

Row | SMILES | inhibition
25 | COc1ccc(CCNC(=O)c2ccc3c(c2)N(Cc2cccc(C)c2)C(=O)c2ccccc2S3(=O)=O)cc1OC | 7.26%
26 | CCOc1ccccc1-c1nc(-c2ccc(-c3ccccc3)nc2OCC)no1 | -7.05%
27 | O=C(Nc1ccccc1)Nc1ccccc1Br | active: 41.6%
28 | COc1ccccc1NC(=O)CSc1nnc(-c2cccc(Cl)c2)o1 | -7.22%
29 | CCn1cc(S(=O)(=O)c2cc(C)cc(C)c2)c(=O)c2cc(F)c(N3CCOCC3)cc21 | 9.32%
30 | O=C(CCCN1CC=C(n2c(=O)[nH]c3ccccc32)CC1)c1ccc(F)cc1 | active: 101% and active: 81.3%
31 | COc1ccccc1Nc1c2c(nc3ccc(NC(=O)/C=C/c4cccc(OC)c4OC)cc13)CCCC2 | 13.9%
32 | Cc1ccc(Nc2c3c(nc4nncn24)CCC3)cc1 | 3.38%
33 | COc1ccc2nc(N(Cc3cccnc3)C(=O)CCc3ccccc3)sc2c1 | -21.8%
34 | COc1cc(OC)c(NC(c2nnc(-c3ccccc3)o2)c2ccc(F)cc2Cl)cc1Cl (stereo unspecified) | 0.0884%
35 | CCc1ccccc1OCCCCN1CCCC1 | active: 46.5%
36 | COc1ccc(CC(=O)Nc2ccc3nc(Nc4cccc(Cl)c4)cc(C)c3c2)cc1OC | 4.86%
37 | CCc1cccc(CC)c1-n1c(-c2cccnc2)n[nH]c1=S | active: 66.4%
38 | Cc1ccc(S(=O)(=O)N2CCC(Oc3ccc(-n4cnnn4)cc3)CC2)cc1 | 2.46%
39 | COc1cc2c(cc1OC)C1=C(C#N)CN(C3CCCCC3)CN1CC2 | active: 40.2%
40 | COc1ccccc1-n1cc(-c2ccc(C)cc2)nc1S(=O)(=O)CC(=O)Nc1ccccc1C(F)(F)F | -2.61%
41 | COC(=O)c1sc(-c2ccccc2)cc1NC(=O)c1cccc(F)c1 | -8.58%
42 | C=CCN=c1scc(-c2ccco2)n1/N=C/c1ccc(O)c(O)c1O | active: 88.1%
43 | O=C(NCc1ccc(F)cc1)C1CCN(C(=O)c2ccc(-n3ccc4ccccc43)s2)CC1 | -6.39%
44 | Cc1ccc(CN2CCCn3nc(C(=O)NCCC(C)C)cc3C2=O)cc1 | 15%
45 | COC(=O)c1ccc(NC(=O)C2(S(=O)(=O)c3ccc(C)cc3)CC2)cc1 | 13.6%
46 | O=C(NCCc1ccccc1)c1ccc(CSc2nc3cccnc3n2Cc2ccc(F)cc2)cc1 | 5.13%
47 | Cc1cc(C)nc(SCCCNCc2ccc(Br)cc2)n1 | active: 58.9%
48 | O=C(NC(=O)c1cccc(F)c1)Nc1ccc(-c2cc(C(F)(F)F)nn2-c2ccccc2)cc1 | -16.6%

Row | SMILES | inhibition
49 | CC(=O)c1ccc(NC(=O)C2CCC(CNS(=O)(=O)c3ccc(Br)s3)CC2)cc1 (stereo unspecified) | 3.46%
50 | Cc1nc(-c2ccc(C)c(N3CCN(C(=O)Nc4ccccc4C(F)(F)F)CC3)c2)no1 | 25.5%
51 | CCN(CC)CCNC(=O)c1cc(S(C)(=O)=O)ccc1OC | active: 99%
52 | O=C(NCCCc1ccccc1)c1nn(-c2ccccc2F)nc1CO | 3.67%
53 | COc1ccccc1CNC(=O)C1CCN(c2nc3ccc(Cl)cc3[nH]2)CC1 | 0.624%
54 | CCCS(=O)(=O)c1nc(S(=O)(=O)c2ccc(C)cc2)c(N2CCN(CC)CC2)s1 | active: 67.4%
55 | CCn1cc(/C=C(\NC(=O)c2ccc(OC)cc2)C(=O)NCCCn2ccnc2)c2ccccc21 | 9.57%
56 | CCc1nn(CC(=O)NCCc2ccc(OC)cc2OC)c(=O)c2cc3occc3n12 | 6.77%
57 | COc1cc2c(=O)n(CCC(=O)NCC3CCCO3)c(=O)n(CC(=O)Nc3ccccc3C)c2cc1OC (stereo unspecified) | -13.4%
58 | Oc1ccc(CN2CCN(c3ncccn3)CC2)cc1 | active: 84.3%
59 | CCc1ccc(C(=O)c2cn(CC(=O)Nc3ccc4c(c3)OCCO4)c3ccc(F)cc3c2=O)cc1 | 10.2%
60 | Cc1ccc(NCc2cccn2-c2nnc(N3CCC(C(=O)NCCc4ccc(Cl)cc4)CC3)s2)cc1 | 2.41%
61 | CCCCN(CC)CCCNC(=O)c1c(C)oc2ncnc(N3CCOCC3)c12 | -8.63%
62 | COc1ccc(-n2c(C)nc3c(cnn3-c3ccc(F)cc3)c2=O)cc1 | -7.88%
63 | CN1CCCC(CC2Oc3ccccc3Sc3ccccc32)C1 (stereo unspecified) | active: 95.7%
64 | CCc1nn2c(=O)cc(COC(=O)c3cccc(NC(=O)CCc4ccccc4)c3)nc2s1 | 13.7%
65 | COc1ccc(-n2ncc3c(NCCCOC(C)C)ncnc32)cc1 | 5.7%
66 | CCc1nn(CC(=O)NC2CC2)c(=O)c2cc3c(OC)cccc3n12 | 21.8%
67 | CCCCNC(=O)C1CCCN(S(=O)(=O)CCC)C1 (stereo unspecified) | 22.7%
68 | CCOc1ccccc1C1CC(=O)Nc2c1c(=O)n(C)c1ncnn21 (stereo unspecified) | 13.4%
69 | O=C(CCc1nc(CN2CCN(S(=O)(=O)c3ccc(Br)cc3)CC2)no1)N1CCCCC1 | -2.36%
70 | COc1cc2cc(CNc3ccccc3)c(=O)n(CC(=O)Nc3cccc(Cl)c3C)c2cc1OC | 9.48%
71 | COc1cc(NC(=O)Cn2c(=O)n(CC3CCC(C(=O)NCCc4ccccc4)CC3)c(=O)c3ccccc32)cc(OC)c1 (stereo unspecified) | 8%
72 | Cc1c(C(=O)NCc2ccc(Cl)cc2)oc2ccc3c(c12)C(=O)CC(C)(C)O3 | 6.84%

Row | SMILES | inhibition
73 | CCCCOc1ccc(CNC(=O)c2cccc(NC(=O)N3CCSc4ncccc43)c2)cc1 | 0.86%
74 | Cc1ccc(CNC(=O)CSc2ncc3c(n2)-c2cc(Cl)ccc2N(C)S3(=O)=O)cc1 | 10.4%
75 | CCCCn1c(N)nc2ccccc21 | active: 30.7%
76 | COc1cccc(Nc2nc(=O)[nH]nc2C)c1 | active: 34.2%
77 | O=C(NCc1cccc(Cl)c1)c1c2c(nc3ccccc13)C(=O)N(C1CCCCC1)C2 | -6.77%
78 | CC(=O)Nc1cccc(NC(=O)c2cc3c(=O)n4cccc(C)c4nc3n2C)c1 | 19%
79 | COc1cc(NC(=O)c2ccc(C)c(Cl)c2)ccc1NC(=O)c1cc2ccccc2o1 | -3.81%
80 | CCCn1cc(S(=O)(=O)c2ccc(C)cc2)c(=O)c2cc(F)c(N3CCCC3)cc21 | -10.2%
81 | CCOc1ccccc1Nc1ncnc2c1cnn2-c1ccc(C)cc1 | -15.8%
82 | COc1ccc(CC(=O)Nc2nc3c(s2)CC(C)CC3)cc1 (stereo unspecified) | -7.94%
83 | Cc1ccc(NC(=O)C2CCCN(S(=O)(=O)c3ccc4[nH]c(=O)ccc4c3)C2)cc1Cl (stereo unspecified) | -2.39%
84 | COc1ccc2c(c1)c1c(c(=O)n(CCc3ccccc3)c(=O)n1Cc1cccc(Cl)c1)n2C | 0.5%
85 | CC1CCN(S(=O)(=O)c2ccc3c(c2)CCN3C(=O)Nc2ccccc2Br)CC1 | -1.83%
86 | Fc1ccc(N2CCN(c3nc4ccccc4c4nc(-c5ccccc5)nn34)CC2)cc1 | 18.5%
87 | COc1ccc2c(c1)cc(CNc1ccc(OC)c(OC)c1)c(=O)n2CC(=O)Nc1ccccc1C | 0.571%
88 | Cc1ccc(S(=O)(=O)Nc2cccc(-c3ccc(N4CCC(C)CC4)nn3)c2)s1 | -2.97%
89 | COc1ccc(OCC(=O)Nc2ccc(-c3nc4cc(C)cc(C)c4o3)cc2)cc1 | 1.1%
90 | COc1cccc2c1cc1c(=O)n(CC(=O)N3CCN(c4cccc(C)c4C)CC3)nc(C)n12 | -24.1%
91 | CCOc1ccccc1Nc1nc2ccccc2c2nncn12 | 7.1%
92 | CCOc1ccc(CNC(=O)c2ccc3oc(=O)n(Cc4ccccc4)c3c2)cc1 | -0.479%
93 | COc1ccc(CCNC(=O)CCc2c(C)nc3c4c(C)cc(C)nc4nn3c2C)cc1OC | -0.07%
94 | Cc1ccc(CNC(=O)C2CCN(S(=O)(=O)N3CCCCC3)CC2)cc1 | -7.94%
95 | Cc1ccc(Cn2nnc3c(=O)[nH]c(C4CCN(C(=O)Cc5ccccc5F)CC4)nc32)cc1 | 2.51%
96 | CC(=O)c1c(C)oc2ccc(N(C(=O)Oc3ccccc3)S(=O)(=O)c3ccc(Cl)cc3)cc12 | -16.7%
